# Measurements reported in PubChem BioAssay AID1347073 (National Center for Advancing Translational Sciences (NCATS), 2019).
# Screen size: about 45,000 compounds; about 200 (0.44%) were called active. Another 7% or so got no clear call; they are omitted. Calls come from the whole dose curve; as a rule, active = well fitted activation curve with a large enough effect; inconclusive = small, poorly fitted or top-dose-only effect; inactive = no such curve, though single readings can be large or run the other way. The list shows a part of the results.
# Assay: qHTS of TDP-43 Inhibitors: NCGC Sytravon Library Screen; note: 0% is about no effect; nearly all actives have a fitted effect of over 55% in size
# Conditions: yeast TDP-43 toxicity rescue, BacTiter-Glo growth, 24 h; series mostly up to 46.1 µM; growth rescue (activation): at the top concentration
# Procedure, shortened: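 TDP-43-expressing yeast, pregrown in raffinose, seeded at OD600 0.02 in galactose medium with compound for 24 hr at 30 deg C. Growth read by BacTiter-Glo luminescence, so rescue of toxicity appears as activation.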
row,SMILES,growth rescue (activation)
1,C/C(CS(=O)(=O)c1ccc(Cl)cc1)=N/NC(N)=S,inactive: 1.94%
2,COc1cc(NS(=O)(=O)c2ccc(NC(=O)c3ccc(S(=O)(=O)N4CCCCC4)cc3)cc2)ncn1,inactive: 10.5%
3,CC(C)(C)C(=O)Nc1sc(-c2ccccc2)cc1C(=O)O,inactive: 14.4%
4,Cc1cc(-c2ccccc2)n2ncc(-c3ccccc3)c2n1,inactive: -4.74%
5,Nc1nnc(SCC(=O)Nc2cccc3ccccc23)s1,inactive: -10.1%
6,COc1ccc(OC)c(NC(=O)C2(C)CCN2C(=O)Cc2ccccc2)c1 (stereo unspecified),inactive: 7.89%
7,O=C(COc1ccc(Cl)cc1)NCCNC(=O)c1ccccn1,inactive: -4.15%
8,Oc1ccc(-c2csc(-c3cccnc3)n2)cc1O,inactive: -2.87%
9,C=CCOc1ccc(-c2nc3c(c(=O)[nH]c(=O)n3CCCC)n2C)cc1Br,inactive: 8.19%
10,COc1ccc(CN(C)C(=O)c2cccc(Oc3ccccc3)c2)c(OC)c1OC,inactive: 28.6%
11,CCn1c(CC(=O)Nc2ccc(F)cc2)nnc1SCC(=O)NC1CCCC1,inactive: -9.74%
12,COc1ccc(OC)c(/C=N/NC(=O)C(=O)N/N=C/c2cc(OC)ccc2OC)c1,inactive: 3.5%
13,NC(N)=NCC(O)CN(c1ccccc1)c1ccccc1 (stereo unspecified),inactive: 13.5%
14,Cc1ccccc1OCC(=O)NNC(=O)Cn1[nH]c(=O)c2ccccc2c1=O,inactive: 8.72%
15,COc1ccc(CNC(=O)C2CCCN(C(=O)Nc3ccccc3OC)C2)cc1 (stereo unspecified),inactive: -0.937%
16,CCc1cccc(CC)c1NC(=O)CO/N=C(\C)c1cccs1,inactive: 39.3%
17,NC(=O)CSc1nccn1Cc1ccc2c(c1)OCO2,inactive: 13.7%
18,Cc1ccc(CNC(=O)CCS(=O)(=O)c2ccc(Cl)cc2)cc1,inactive: 9.69%
19,CC(=O)Nc1ccc(S(=O)(=O)N2CCN(Cc3csc(C)n3)CC2)cc1,inactive: -4.04%
20,O=C(O)Cc1ccc(NC(=S)NCc2ccco2)cc1,inactive: 12.5%
21,CC(=O)N1CCC(N(CCN2CCOCC2)C(=S)Nc2cc(C)cc(C)c2)CC1,inactive: 4.91%
22,COc1ccc(-c2nnc(-c3ccccc3O)o2)cc1,inactive: 6.43%

row,SMILES,growth rescue (activation)
1,O=C(c1ccccc1)c1ccccn1,inactive: 7.79%
2,CCc1ccc(NC(=O)C2CCCN(S(=O)(=O)c3c(C)[nH]c(=O)[nH]c3=O)C2)cc1 (stereo unspecified),inactive: -4.13%
3,CCN=C1SC(CC(=O)Nc2sc3c(c2C#N)CCCC3)C(=O)N1CC (stereo unspecified),inactive: -14.5%
4,COC(=O)c1ccc(Cn2nc(-c3ccc(C)c(C)c3)ccc2=O)cc1,inactive: -12.4%
5,C#CCn1cc(/C=N/NC(=O)COc2cccc3cccnc23)c2ccccc21,inactive: -8.22%
6,CCOC(=O)C1CCN(C(=O)COC(=O)CNC(=O)c2ccc(C(C)(C)C)cc2)CC1,inactive: 7.71%
7,O=C(Nc1ccc(C(F)(F)F)cc1)C1CC(=O)N(c2ccc3c(c2)OCCO3)C1 (stereo unspecified),inactive: 14.8%
8,Cc1ccc(-c2nnn(CC(=O)N(Cc3ccco3)C(C(=O)NC(C)(C)C)c3ccncc3)n2)o1 (stereo unspecified),inactive: 8.21%
9,Cc1cc(=O)n2c(C(=O)Nc3ccc(C(=O)OC(C)C)cc3)c(C(=O)Nc3ccccc3)sc2n1,inactive: 6.29%
10,CCSc1nnc(-c2ccc(S(=O)(=O)N3CCOCC3)cc2)n1C,inactive: -39.6%
11,CC(=O)OCC[n+]1c(C)n(-c2ccccc2)c2ccc(Cl)cc21,inactive: 1.06%
12,Cn1c(N)c(C(=O)CSc2nnc(C3CC3)n2Cc2ccccc2)c(=O)n(C)c1=O,inactive: 2.45%
13,O=C(CSc1nnnn1-c1ccccc1)N1CCN(C(=O)c2ccco2)CC1,inactive: -10.9%
14,COc1cc(CN2CCN(Cc3ccco3)CC2)cc(OC)c1,inactive: 2.68%
15,Cc1nc2nc(C)c(CCC(=O)NCCCN3CCN(c4cccc(Cl)c4)CC3)c(C)n2n1,inactive: -2.07%
16,CCN(CC(=O)Nc1ccc(N2CCOCC2)cc1)CC(=O)NC(C)(C)C,inactive: -7.33%
17,O=C(Nc1noc2ccccc12)c1cccc(F)c1,inactive: 16.6%
18,O=C(COc1ccccc1)NCC(=O)N/N=C/C=C/c1ccccc1,inactive: 5.67%
19,COc1ccc(S(=O)(=O)N2CCOCC2)cc1NC(=O)c1ccccc1-c1ccc(C(F)(F)F)cc1,inactive: -1.04%
20,CCN(CC)C(=O)CN1C(=O)C(=O)c2ccccc21,inactive: -4.4%
21,COc1cc(NC(=O)CN2C(=O)COc3ccccc32)cc(OC)c1,inactive: -6.38%
22,COc1ccc(N(CC(=O)NCc2ccccc2C)S(=O)(=O)c2ccc(C)cc2)cc1OC,inactive: 8.22%

row,SMILES,growth rescue (activation)
1,O=c1cnc2ccccc2n1Cc1ccccc1C(F)(F)F,inactive: 6.77%
2,COc1cc(/C=C(\C#N)C(=O)Nc2cc(C(F)(F)F)ccc2Cl)ccc1OCC(=O)Nc1cccc(C(F)(F)F)c1,inactive: 23%
3,CC(C)NC(=O)C1(C)CCN1C(=O)c1cccc(Cl)c1 (stereo unspecified),inactive: 6.58%
4,CCOc1ccc(S(=O)(=O)Nc2ccc3c(c2)c(C(C)=O)c(C)n3S(=O)(=O)c2ccc(OCC)cc2)cc1,inactive: 0.356%
5,O=C(OCC(=O)N1CCOCC1)c1ccc(Br)cc1,inactive: -0.554%
6,CCCCN(C)CCNC(=O)C(NC(=O)C1CCC(C)CC1)C(C)C (stereo unspecified),inactive: -3.01%
7,O=c1[nH]c(-c2ccccc2)nnc1-c1ccccc1,inactive: -15.6%
8,Cc1ccc(NC(=O)CN2CCOCC2)cc1S(=O)(=O)N1CCCCC1,inactive: 8.97%
9,COc1ccccc1C(=O)NCC(=O)OCC(=O)N1CC(C)OC(C)C1 (stereo unspecified),inactive: 18.2%
10,COc1ccc(C(=O)N/C(=C\c2cccs2)C(=O)N2CCN(C)CC2)cc1OC,inactive: -21%
11,CCNC(=S)N/N=C(\C)c1cccc([N+](=O)[O-])c1,inactive: 1.99%
12,Cc1cc(NC(=O)CCCn2nc(C)c([N+](=O)[O-])c2C)no1,inactive: 1.16%
13,Cc1nc(CN2CCCCC2)cc(=O)[nH]1,inactive: -28.4%
14,COc1cc(OC)c(NS(=O)(=O)c2cc(C(=O)OC(C)C(=O)NC3CC3)c(Cl)cc2Cl)cc1Cl (stereo unspecified),inactive: 11.4%
15,COc1nccnc1NS(=O)(=O)c1ccc(NC(=S)NC(=O)c2ccccc2)cc1,inactive: -14.4%
16,CC(C)n1c(NCc2ccccc2O)nc2ccccc21,inactive: 8.98%
17,Cc1ccc(-c2nn(-c3ccccc3)cc2/C=N/NC(=O)c2ccncc2)o1,inactive: -6.92%
18,O=C(Nc1cccnc1Cl)c1cc(-c2ccc(Cl)cc2)on1,inactive: -1.92%
19,Cc1ccc2c(Cl)c(C(=O)Nc3ccc4c(c3)OCO4)sc2c1,inactive: 11.1%
20,Cn1c(N)c(C(=O)COC(=O)CNS(=O)(=O)c2ccc(Cl)c(Cl)c2)c(=O)n(C)c1=O,inactive: 11.3%
21,Cc1ccc2ccccc2c1C(O)c1ncc(-c2ccccc2)[nH]1 (stereo unspecified),inactive: 1.99%
22,CCNC(=S)N1CCN(c2ccccn2)CC1,inactive: -3.77%

row,SMILES,growth rescue (activation)
1,COc1ccccc1-c1c(C)nn2c(N3CCC(C)CC3)cc(C)nc12,inactive: -6.54%
2,CC(=O)c1ccc(OC2(C)CCN(Cc3ccc(OC(F)(F)F)cc3)C2)cc1 (stereo unspecified),inactive: 6.29%
3,CC1(C)OC(=O)C(=Cc2ccc(-c3ccc(S(N)(=O)=O)cc3)o2)C(=O)O1,inactive: -4.58%
4,Cc1ccc(CN(CC(=O)NCC2CCCO2)S(=O)(=O)c2ccc(C)cc2)cc1 (stereo unspecified),inactive: 21%
5,Cc1ccc(-c2nnn(CC(=O)N(Cc3ccco3)C(C(=O)NC(C)(C)C)c3ccc(C)o3)n2)o1 (stereo unspecified),inactive: -0.47%
6,COc1ccc(C)cc1S(=O)(=O)N1CC(C)OC(C)C1 (stereo unspecified),inactive: 7.2%
7,Cc1ccc(C(=O)c2ccccc2C(=O)OCC(=O)NCCc2ccc(Cl)cc2Cl)cc1,inactive: 20.1%
8,CC1(C(=O)NS(=O)(=O)c2ccc(Br)cc2)CCN1C(=O)CCC1CCCC1 (stereo unspecified),inactive: -14.6%
9,COc1cccc2[nH]c3c(Cl)ncnc3c12,inactive: -9.51%
10,O=C(O)C12CC3CC(C1)CC(n1cnc(Cl)n1)(C3)C2,inactive: 20.5%
11,CCn1cc(CN2CCC(C(=O)Nc3ccc(Oc4cccnc4)cc3)CC2)cn1,inactive: -86.2%
12,O=C(N/N=C/c1cccnc1)C12CC3CC(CC(C3)C1)C2,inactive: -0.125%
13,Cc1ccc(OCC(=O)N2CCOCC2)c([N+](=O)[O-])n1,inactive: 19%
14,O=C(Nc1ccc(C(F)(F)F)cc1-c1ccccc1)c1ccccc1,inactive: 7.38%
15,CC1(C(=O)NS(=O)(=O)c2ccc(Cl)cc2)CCN1C(=O)CCc1ccccc1 (stereo unspecified),inactive: 4.76%
16,CS(=O)(=O)Cc1cccc(C(=O)NC2CCSc3ccccc32)c1 (stereo unspecified),inactive: 6.76%
17,CCOC(=O)c1c(NC(=O)COc2ncnc3ccccc23)sc(C(C)=O)c1C,inactive: 2.73%
18,COc1ccccc1CNC(=O)C(Cc1c[nH]c2ccccc12)NC(=O)OCc1ccccc1 (stereo unspecified),inactive: 8.23%
19,CC(=O)Nc1cccc(-c2ccnc3c2CC(C)(C(=O)NCC2CC2)O3)c1 (stereo unspecified),inactive: 4.59%
20,COC(=O)c1ccc(CSc2nnc3c(n2)[nH]c2ccccc23)cc1,inactive: -2.87%
21,CCOC(=O)c1sc2nc3c(SCC(=O)O)cc(C(=O)c4ccccc4O)cn3c(=O)c2c1C,inactive: 5.42%
22,O=C(c1ccc(=O)[nH]c1)N(Cc1ccco1)C1(C(=O)NC2CCCC2)CCCCC1,inactive: 21.8%

row,SMILES,growth rescue (activation)
1,Cc1nc(C(=O)N2CCc3c([nH]c4ccccc34)C2c2ccccn2)cs1 (stereo unspecified),inactive: 8.82%
2,O=C(C1CC(=O)N(c2ccc(F)cc2)C1)N1CCCCCC1 (stereo unspecified),inactive: 1.56%
3,COc1cccc(C(NC(C)=O)c2nc(-c3cccnc3)cs2)c1 (stereo unspecified),inactive: -9.91%
4,COc1cc(/C=N/Nc2nc3ccccc3[nH]2)cc(OC)c1O,inactive: 25.5%
5,CCN(Cc1cn2cccnc2n1)C1CCCCC1,inactive: -2.26%
6,COc1ccc(NC(=S)NC2CCN(Cc3ccccc3)CC2)cc1OC,inactive: 5.05%
7,CCOC(=O)C1=C(CCl)NC(=O)NC1c1ccc2c(c1)OCO2 (stereo unspecified),inactive: 2.13%
8,O=c1c2ccc([N+](=O)[O-])cc2ncn1CCOc1cccc(Br)c1,inactive: 20%
9,Cc1ccc(NS(=O)(=O)c2cc3c4c(cccc4c2)C(=O)NC3=O)cc1,inactive: 1.91%
10,O=C(CN1C(=O)c2ccccc2S1(=O)=O)NCc1ccccc1,inactive: -1.86%
11,COc1ccc(CC(=O)Nc2cc(Cl)ccc2N2CCCC2)cc1,inactive: 13.9%
12,Cc1ccc(-c2nc(NC(=O)CSc3ccc4ccccc4n3)ns2)cc1,inactive: -3.91%
13,O=[N+]([O-])c1cc(C(F)(F)F)ccc1N1CCC(O)CC1,inactive: 17.4%
14,O=C(COC(=O)c1nsc(Cl)c1Cl)NC1CCCCC1,inactive: -19%
15,CCCCN1C(=O)C2C3C=CC(C2C1=O)C1C2C(=O)N(CCCC)C(=O)C2C31 (stereo unspecified),inactive: -2.86%
16,OCCN1CCN(c2cc(-c3ccccc3)c3ccccc3n2)CC1,inactive: -3.38%
17,O=C(N[C@@H](Cc1ccccc1)C(=O)N1CCN(S(=O)(=O)c2ccccc2F)CC1)c1ccco1,inactive: 23.2%
18,CCN(Cc1ccccc1)C(=O)c1cccnc1,inactive: -13.4%
